Test results reported in PubChem BioAssay AID588342 (National Center for Advancing Translational Sciences (NCATS), 2011).
About 25,000 (6.9%) of roughly 360,000 compounds were called active. Inconclusive means that the source gave no clear call. Such entries were picked first, then a sample of the others. Calls come from the whole dose curve; as a rule, active = well fitted inhibition curve with a large enough effect; inconclusive = small, poorly fitted or top-dose-only effect; inactive = flat fitted curve, though single readings scatter. A potency beside an inconclusive call is a rough fit, not a confirmed value.

target: Luciferin 4-monooxygenase (Photinus pyralis) (UniProt P08659); test: qHTS profiling assay for firefly luciferase inhibitor/activator using purifed enzyme and Km concentrations of substrates (counterscreen for miR-21 project); settings: purified FLuc, luminescence inhibition; series mostly up to 57.5 µM; note: nearly all actives have a fitted effect of over 55% in size
Method in brief: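 Biochemical qHTS of compounds, final roughly 60 µM downward over six points, against 10 nM purified firefly luciferase using Km concentrations of substrates (10 uM D-luciferin, 10 uM ATP) in Tris acetate pH 7.5 buffer; luminescence output.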
Potency is the fitted concentration of half-maximal effect; tags give direction and shape of the fitted curve.

Chain of UniProt P08659 (P08659 whole entry, looked up): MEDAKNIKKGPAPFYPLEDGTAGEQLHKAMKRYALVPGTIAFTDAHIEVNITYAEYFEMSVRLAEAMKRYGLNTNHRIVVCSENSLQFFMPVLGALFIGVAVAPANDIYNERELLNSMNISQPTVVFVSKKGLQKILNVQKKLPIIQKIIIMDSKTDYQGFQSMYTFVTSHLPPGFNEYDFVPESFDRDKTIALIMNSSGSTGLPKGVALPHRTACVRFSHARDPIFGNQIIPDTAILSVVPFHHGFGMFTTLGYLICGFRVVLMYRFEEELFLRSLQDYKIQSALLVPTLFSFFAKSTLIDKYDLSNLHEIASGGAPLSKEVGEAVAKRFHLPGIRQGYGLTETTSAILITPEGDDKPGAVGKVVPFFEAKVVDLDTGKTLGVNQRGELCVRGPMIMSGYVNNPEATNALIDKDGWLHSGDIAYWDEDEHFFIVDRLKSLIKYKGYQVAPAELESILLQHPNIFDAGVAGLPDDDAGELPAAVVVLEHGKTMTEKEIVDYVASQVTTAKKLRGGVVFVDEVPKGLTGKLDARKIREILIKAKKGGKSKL

SMILES | Potency
CCOC(=O)N1CCC(N2C(=O)c3ccccc3C2Nc2c(C)cccc2C)CC1 (centres undefined) | inactive
O=C(CN1CCCC1c1ccc2c(c1)OCCO2)NC(=O)Nc1ccccc1F (centres undefined) | inactive
O=C(CSC1=NS(=O)(=O)c2ccccc2N1)Nc1nccs1 | inconclusive: 26.9 µM [inhibitor, single point]
COC(=O)c1ccc(CNC(=O)c2ccc(OCC(=O)N3CCOCC3)c(OC)c2)cc1 | inactive
CCCCC(C(=O)NC1CCCC1)N(C(=O)c1snc(C(N)=O)c1N)c1ccc(OCC)cc1 (centres undefined) | inactive
Cc1ccsc1-c1nc(CN2CCN(C)C(=O)[C@@H]2C)c(C)o1 | inactive
CCCc1cc2c(=O)c(-c3ccccn3)c(C)oc2cc1O | inconclusive: 26.9 µM [inhibitor, single point]
Nc1ccccc1C(=O)NNC(=O)C(=O)/C=C(\O)c1ccccc1 | active: 13.5 µM
CSC1=NSC2=NC(=O)/C(=C/c3coc4ccccc4c3=O)C(=N)N12 | inconclusive: 37.9 µM [inhibitor, partial curve, poor fit]
COc1ccc(N(CC(=O)N2CCN(c3ccc(F)cc3)CC2)S(=O)(=O)c2c(C)nn(C)c2C)cc1 | inactive
O=C(NC(=S)Nc1ncccn1)c1ccc(F)cc1 | inconclusive: 16.9 µM [inhibitor, partial curve]
CCc1ccc(NC(=O)CSc2nc3[nH]ncc3c(=O)[nH]2)cc1 | inconclusive: 16.9 µM [inhibitor, partial curve, poor fit]
CC(C)NC(=O)c1onc(CSc2cccc(F)c2)c1C(=O)O | inconclusive: 21.3 µM [inhibitor, partial curve, poor fit]
CC1CC(C)CN(C(=O)c2cn(C)c3ccc(S(=O)(=O)N(C)C)cc3c2=O)C1 (centres undefined) | inactive
Cc1c(Cl)cccc1NC(=O)Cn1c(-c2ccc(F)cc2)noc1=O | inconclusive: 26.9 µM [inhibitor, partial curve, poor fit]
Cc1ccc2nc(Cc3ccc(N)cc3)[nH]c2c1 | inconclusive: 33.8 µM [inhibitor, partial curve, poor fit]
O=C(c1ccco1)N1CCN(c2ncnc3c(-c4ccccc4)nsc23)CC1 | active: 10.7 µM
O=C(Nc1cccnc1)C1CC(c2ccccc2O)=NO1 (centres undefined) | inactive
CC(C)(C)c1ccc(S(=O)(=O)N2CCC(c3ccncc3)CC2)cc1 | inactive
Cc1cc(C)cc(C(=O)OCC(=O)N2CCCC2)c1 | inactive
COc1cccc(-n2cc(C(=O)Nc3ccccc3C(N)=O)c3ccccc3c2=O)c1 | inconclusive: 10.7 µM [inhibitor, partial curve]
Cc1ccccc1CNC(=O)Cn1cc2c(n1)-c1c(oc(C(=O)N3CCCC3)c1C)CC2 | inactive
O=C(NNc1nc(-c2ccccc2)cs1)c1ccccc1 | inconclusive: 23.9 µM [inhibitor, partial curve, poor fit]
Cc1ccc(NC(=O)c2ccnc(C(C)(C)C)c2)cc1 | inconclusive: 19 µM [inhibitor, single point]
O=C(CNC(=O)c1ccccc1)N/N=C/c1ccc([N+](=O)[O-])s1 | inactive

SMILES | Potency
COc1cc(S(=O)(=O)Nc2ccc3nc(C)sc3c2)ccc1NC(C)=O | inactive
Cn1cnc(S(=O)(=O)NC2CCN(Cc3c(F)cccc3Cl)CC2)c1 | inactive
COc1cc(Br)cc(/C=C/c2ccc3cccc(O)c3n2)c1O | inconclusive: 15.1 µM [inhibitor, partial curve]
COc1ccc(N2CCN(C(=O)c3ccccc3N(C)S(=O)(=O)c3ccc(C)cc3)CC2)cc1 | inactive
Cc1cc(NC(=O)CCc2ccccc2)c([N+](=O)[O-])cc1C | inconclusive: 23.9 µM [inhibitor, partial curve, poor fit]
COc1cc(N2CCCC2)c(OC)cc1/C=c1/sc2nc3ccccc3n2c1=O | inconclusive: 8.49 µM [inhibitor, partial curve]
CNc1ccccc1C(=O)OCC(=O)c1ccc(F)cc1 | active: 5.36 µM
O=C(C/C=N/OCc1ccc(Cl)cc1Cl)c1ccccc1 | inconclusive: 37.9 µM [inhibitor, partial curve, poor fit]
CCCCN1C(=O)/C(=C/C=C2\N(C)c3ccccc3C2(C)C)SC1=S | inconclusive: 30.1 µM [inhibitor, partial curve, poor fit]
O=c1c2ccccc2c(/C=N/c2n[nH]c(CCCO)n2)c(O)n1-c1ccccc1Cl | active: 16.9 µM
Cc1cc(Cl)c2oc(C(=O)N(C)CC3CCOCC3)c(C)c2c1 | inconclusive: 26.9 µM [inhibitor, single point]
CC(=O)Nc1ccc(N/C=C/C(=O)C(C)(C)C)cc1 | inconclusive: 26.9 µM [inhibitor, single point]
[O-]/C(=C(\C(=S)Nc1ccc(SC(F)F)cc1)[n+]1cccc(CO)c1)c1ccc(Cl)s1 | inconclusive: 26.9 µM [inhibitor, single point]
Cc1cc(C)c(-c2csc(NC(=O)C3=NN(c4ccccc4)C(=O)CC3)n2)c(C)c1 | inactive
O=C(COc1ccccc1)NNC(=S)NC(=O)c1ccc(Cl)cc1Cl | inconclusive: 37.9 µM [inhibitor, single point]
CCc1ccccc1NC(=O)/C(C#N)=C\c1ccc(Sc2ccccc2)o1 | inconclusive: 16.9 µM [inhibitor, partial curve, poor fit]
COC(=O)c1c(NC(=O)c2c(OC)cccc2OC)sc2c1CCCC2 | inconclusive: 10.7 µM [inhibitor, partial curve]
CN1CCN(c2cc(N3CCN(C(=O)c4ccco4)CC3)c3c4c(onc24)-c2ccccc2C3=O)CC1 | inconclusive: 21.3 µM [inhibitor, partial curve, poor fit]
CC(=O)c1cccc(NC(=S)NC(=O)c2ccccc2C)c1 | inconclusive: 23.9 µM [inhibitor, partial curve, poor fit]
CC(C)c1cc(=O)n2c(nc3ccccc32)[nH]1 | inconclusive: 19 µM [inhibitor, single point]
Cc1cc2oc(=O)cc(COC(=O)c3n[nH]c4ccccc34)c2cc1C | inconclusive: 5.36 µM [inhibitor, partial curve, poor fit]
CCc1ccccc1NC(=O)CSc1nc2c(oc3ccccc32)c(=O)n1-c1ccccc1 | inactive
NC(=O)c1sc2cc(C(F)(F)F)cnc2c1-c1cccs1 | inactive
COc1ccc(/C=C2\SC(=S)N(CCC(=O)Nc3cccc(O)c3)C2=O)cc1OC | inconclusive: 4.26 µM [inhibitor, partial curve, poor fit]
COc1ccccc1CNC(=O)C1CCN(c2nn3c(=O)cc(C)nc3s2)CC1 | inactive

SMILES | Potency
CC(=O)N/C(=C\c1ccccc1)C(=O)OCCCOC(=O)/C(=C/c1ccccc1)NC(C)=O | inactive
Cc1[nH]n2c(=O)c(C#N)c(-c3ccccc3)nc2c1-c1ccccc1 | inconclusive: 30.1 µM [inhibitor, single point]
COc1ccc(Cn2c(=O)c3oc4ccccc4c3n(CC(=O)Nc3cc(C)cc(C)c3)c2=O)cc1 | inactive
CCc1ccc(NC(=O)Cn2cc([N+](=O)[O-])nc2C)cc1 | inactive
O=C(OCC(=O)N1CCc2ccccc2C1)c1cccs1 | active: 10.7 µM
Cc1ccc(NC(=O)COc2ccccc2C(=O)Nc2ccccc2)cc1Cl | inconclusive: 30.1 µM [inhibitor, partial curve, poor fit]
S=C(Nc1ccc(Cl)cc1)N1CCCC1 | inconclusive: 37.9 µM [inhibitor, single point]
N=C1C(=O)OCC1c1ccccc1NC(=O)CN1CCCCC1 (centres undefined) | inactive
Cc1cc(C)nc(Nc2nc3ccccc3s2)n1 | inconclusive: 0.849 µM [inhibitor, full curve]
CN1CCc2nc(NC(=O)c3cccc(S(=O)(=O)N4CCc5ccccc54)c3)sc2C1 | inactive
COc1cccc(-n2cc(C(=O)NCCc3cccc(C)c3)c3ccccc3c2=O)c1 | inactive
CSc1ccccc1C(=O)Nc1ccc2c(c1)OCCO2 | inconclusive: 21.3 µM [inhibitor, single point]
Nc1nonc1-n1nnc(C(=O)N/N=C/c2cccc(Cl)c2)c1-c1cccs1 | inconclusive: 30.1 µM [inhibitor, single point]
CCn1c2ccccc2c2nc3cc(S(=O)(=O)N4CCOCC4)ccc3nc21 | inconclusive: 13.5 µM [inhibitor, partial curve]
O=C(N/N=C/c1cccs1)c1cc(C2CC2)nc2ccccc12 | inactive
CC(C)c1ccc(NC(=O)c2ccccc2NC(=O)C2CC=CCC2C(=O)O)cc1 (centres undefined) | active: 26.9 µM
S=c1[nH]nc(-c2cccs2)n1/N=C/c1cccs1 | inconclusive: 15.1 µM [inhibitor, partial curve]
CSc1ccc(CCNC(=O)c2sc3ncccc3c2-n2cccc2)cc1 | inactive
COc1cccc(CNC(=O)c2n[nH]c3ccccc23)c1 | active: 26.9 µM
C=CCn1c(COc2cccc(C)c2)nnc1SCn1nnc2ccccc2c1=O | inconclusive: 19 µM [inhibitor, single point]
C=C(C)C1CC=C(C)/C(=N/NC(=O)COc2ccccc2Cl)C1 (centres undefined) | inactive
COc1ccc2oc(C(=O)N(C)CCOc3ccccc3)c(C)c2c1 | inconclusive: 4.26 µM [inhibitor, partial curve]
COC(=O)c1ccc(NC(=O)CC2C(=O)N(c3ccccc3)C(=O)N2C2CCCC2)cc1 (centres undefined) | inactive
CC(NC(=O)C1CCN(c2nnc(-n3cccc3)s2)CC1)C12CC3CC(CC(C3)C1)C2 (centres undefined) | inconclusive: 26.9 µM [inhibitor, single point]
